Test results: PubChem BioAssay AID588855 (National Center for Advancing Translational Sciences (NCATS), 2011)
Values joined by “and” are separate entries in the source; they are usually repeats but may differ in a detail not shown here. Identical values can stand only once. About 5,000 (1.2%) of roughly 410,000 compounds were called active. Inconclusive results, whose numbers are uncertain, are shown with a selection of clear calls. The call rests on the fitted dose curve; in most records, active means well fitted inhibition curve with a large enough effect; inconclusive means small, poorly fitted or top-dose-only effect; inactive means no such curve, though single readings can be large or run the other way. A potency beside an inconclusive call is a rough fit, not a confirmed value.

Test: qHTS for Inhibitors of TGF-b; further: nearly all actives have a fitted effect of over 65% in size
Settings: HepG2 CAGA-GFP TGF-b/SMAD3 reporter, GFP fluorescence, 18 h, TGF-beta stimulated, 500 pg/mL final; series mostly up to 46.1 µM; activity, negative = inhibition: at the top concentration
Text: TGF-b is a main component in the TGF-b signaling pathway which plays diverse roles in cellular and development pathways. TGF-b is the mediated by the transcription factors Smads. Although the Smad-dependent pathway is the primary canonical TGF-b signaling node, TGF-b1 can also activate alternative signaling pathways, including those involving MAPK (ERK, JNK and p38). This interaction may mediate or enhance Smad-dependent responses, or can exert Smad-independent effects. The complexity of this signaling cascade allows the TGF-b superfamily to perform unique, overlapping or redundant functions. We believe that targeting the TGF-beta pathway at the Smad-transcription factor level may eliminate the consequences of disrupting the entire pathway and offer specificity without affecting other signaling pathways. Smad3 is the primary transducer of TGF-b's signals and Smad3 regulates many functions attributed to TGF-b signaling. We hypothesize that Smad3 inhibitors will selectively eliminate Smad3-specific TGF-beta signals without undesired off-target effects. We aim to identify Smad3-small molecule antagonists using a quantitative high throughput screening (qHTS) approach.
A high-throughput assay was developed to screen the NIH Molecular Libraries Small Molecule Repository (MLSMR). This is a cell based assay, where TGF-b is tagged with GFP. A counterscreen is run that looks at cytotoxicity (please see summary AID).
MH087449NIH Chemical Genomics Center [NCGC]
NIH Molecular Libraries Probe Centers Network [MLPCN]
Assay Submitter (PI): Sushil Rane, National Institute of […]
Suspensions of trypsinized HEPG2 CAGA-GFP cells were dispensed into white, tissue culture-treated, solid 1536-well plates at 5uL/well (1000 cells/well final concentration) in DMEM medium supplemented with 1% FBS. Plates were incubated at 37 degrees C for 2 hours, after which 23 nL of compounds or DMSO were delivered to each well using a pin tool. One uL of recombinant TGF-beta in DMEM (1% FBS) was then dispensed (500 pg/mL final concentration), and plates were incubated at 37 degrees C for 18 hours. The plates were measured on an Acumen eX3 Explorer plate reader for GFP fluorescence (ex488/em500-530). GFP values were calculated by determining the mean GFP fluorescence of individual cells, and compiling these values for each well to determine a total well GFP signal. The %Activity was determined from the corrected fluorescence values. A titration of the known TGF-B inhibitor SB431542 was included to monitor plate performance, while unstimulated HEPG2 (-TGF-B) control wells were used to normalize %Activity of identified inhibitors; unstimulated wells corresponded to 100%Activity (full inhibition), while stimulated cell controls (+DMSO) were used to normalize 0%Activity (no inhibition).
Concentration-response curves were fitted to the signals arising from the resulting fluorescence. The concentration-effect curves were then classified based on curve quality (r2), response magnitude and degree of measured activity, and compounds were subsequently categorized based on their curve class.
Potency means the concentration at half of the fitted maximal effect; tags describe the fitted curve by direction and shape.

SMILES | Potency | activity, negative = inhibition
COc1cc(OC)c(N(C)S(=O)(=O)c2cccc(C(=O)Nc3nc(C)cs3)c2)cc1Cl | inconclusive: 28.2 µM [inhibitor, single point] | –
Cc1ccc(-c2nnc(Nc3ccc4c(c3)nc(C)n4C)c3ccccc23)cc1 | inconclusive: 14.1 µM [inhibitor, partial curve, poor fit] | –
CSc1ccc(S(=O)(=O)NCC(=O)OCC(=O)N(C)C2CCCCC2)cc1[N+](=O)[O-] | – | inactive: 1.88%
Cc1ccc(NC(=O)COc2ccc(Br)cc2CO)cc1S(=O)(=O)N1CCOCC1 | inconclusive: 11.2 µM [inhibitor, partial curve] | –
Cc1ccsc1C1C(C#N)=C(N)N(N(C)C)C2=C1C(=O)CC(C)(C)C2 (stereo not drawn) | – | inactive: 1.05%
O=C(NC(=S)Nc1ccc(CN2CCOCC2)cc1)c1ccc(-c2ccc(Br)cc2)o1 | – | inactive: 19.8%
Cc1ccc(Cc2c(-c3ccc(C#N)cc3)nc3c4ccccc4ccn23)cc1 | inconclusive: 17.8 µM [inhibitor, single point] | –
CCc1nc2ccc(C(=O)Nc3cccc(OC)c3)cn2c1N(C)CCCc1ccccc1 | inconclusive: 28.2 µM [inhibitor, single point] | –
CCc1nnc(NC(=O)CN2CCN(c3cccc(OC)c3)CC2)s1 | inconclusive: 0.355 µM [inhibitor, full curve, poor fit] | –
CN1CCN(c2ccccc2NC(=O)c2ccc(-c3ccc(Cl)c(Cl)c3)o2)CC1 | – | inactive: 13.6%
CC(=O)C(Cc1ccccc1)NC(=O)CN(C)Cc1ccccc1Cl (stereo not drawn) | – | inactive: -1.81%
CC(=O)[C@H]1[C@H](C#N)C[C@H]2[C@@H]3CC=C4C[C@@H](O)CC[C@]4(C)[C@H]3CC[C@@]21C | inactive | –
Cc1ccc(S(=O)(=O)n2cc(-c3ccccc3)c3ccccc32)cc1 | inconclusive: 2.82 µM [inhibitor, full curve] | –
CC(C)N1CC2(CC(c3ccccc3F)=NO2)CN1C(=O)c1ccc(C(C)(C)C)cc1 (stereo not drawn) | inconclusive: 35.5 µM [inhibitor, single point] | –
CCc1ccc(C2c3c(n[nH]c3C)C(=O)N2c2ccc(C)cc2)cc1 (stereo not drawn) | inconclusive: 35.5 µM [inhibitor, single point] | –
O=C(NNC(=O)c1ccc(Br)cc1)c1ccncc1 | – | inactive: -0.675%
NC(=O)CC(NC(=O)Cc1ccc(Br)cc1)c1ccc(NCc2ccc(F)cc2)c([N+](=O)[O-])c1 (stereo not drawn) | inconclusive: 5.62 µM [inhibitor, single point] | –
CCCN1CCC(=O)N([C@H](CSc2ccc(Br)cc2)Cc2ccccc2)CC1 | inconclusive: 7.94 µM [inhibitor, partial curve] | –
Cc1cccc(-c2cc3nc(C)cc(C)n3n2)c1 | – | inactive: 24.1%
CN(C(=O)c1cc2c(=O)n3ccccc3nc2n1C)C1CCCCC1 | inconclusive: 10 µM [inhibitor, single point] | –
Cc1ccc(N2CCN(C(=O)c3nn(C)c4c3CSc3ccccc3-4)CC2C)cc1 (stereo not drawn) | inconclusive: 22.4 µM [inhibitor, single point] | –
CC1Cc2ccccc2N1C(=O)CSCC(=O)O (stereo not drawn) | inconclusive: 5.62 µM [inhibitor, partial curve, poor fit] | –
Cc1nn(-c2ccc(Cl)cc2)c(Cl)c1/C=N/NC(=O)c1ccc(NS(=O)(=O)c2cccs2)cc1 | inconclusive: 22.4 µM [inhibitor, single point] | –

SMILES | Potency | activity, negative = inhibition
CCOc1ccc(CN2C(=O)c3ccccc3Sc3ccc(C(=O)NCc4ccc(C)cc4)cc32)cc1 | – | inactive: 7.79%
Cc1ccc(Nc2nnc(SCC(=O)NCCN3C(=O)CSC3=O)s2)cc1C | inconclusive: 35.5 µM [inhibitor, single point] | –
CN1CCc2c(sc3c2C(=O)NC(c2cccc(OC(=O)c4cccs4)c2)N3)C1 (stereo not drawn) | inconclusive: 20 µM [inhibitor, single point] | –
COc1ccc(S(=O)(=O)N2CCC(Nc3ccccc3Cl)CC2)cc1 | inconclusive: 22.4 µM [inhibitor, single point] | –
Cc1ccc(S(=O)(=O)N2CCN(CC(=O)NC(C)c3ccccc3)CC2)cc1 (stereo not drawn) | inconclusive: 35.5 µM [inhibitor, single point] | –
Cc1ccccc1-c1nc(CN2CCCC(C(=O)NCCCN3CCOCC3)C2)c(C)o1 (stereo not drawn) | inconclusive: 2.51 µM [inhibitor, single point] | –
O=C1CCN(CCc2ccccc2)CCN1[C@H](CSc1ccccc1)c1ccccc1 | inconclusive: 35.5 µM [inhibitor, single point] and inconclusive: 11.2 µM [inhibitor, partial curve, poor fit] | –
CCN(CC)c1nc2ccccc2c(N)c1-c1ccccc1 | inconclusive: 35.5 µM [inhibitor, partial curve, poor fit] | –
Cc1ccc(CC2(c3ccccc3)NC(=O)NC2=O)cc1 (stereo not drawn) | – | inactive: 12%
CC1(C)C2CC[C@]3(C)C(CC=C4[C@@H]5C[C@@](C)(CO)[C@@H](O)C[C@]56C[C@@H](OC6=O)[C@]43C)[C@@]2(C)CC[C@@H]1O (stereo partly drawn) | – | inactive: 0.465%
CCC(C(=O)NCCc1ccc(Cl)cc1)n1nc(C)c2c(C)n(-c3ccccc3)nc2c1=O (stereo not drawn) | inconclusive: 0.0891 µM [inhibitor, full curve, poor fit] | –
Cc1nn2c(-c3cccc(NC(=O)CSc4nc5ccccc5o4)c3)nnc2c2ccccc12 | inconclusive: 35.5 µM [inhibitor, single point] | –
Cc1cccc(C(CC(=O)NCC2(c3ccccc3)CCCC2)c2ccccc2)c1O (stereo not drawn) | inconclusive: 35.5 µM [inhibitor, single point] | –
COc1ccc(Br)cc1CN(C)CC(=O)Nc1cccc(S(=O)(=O)N2CCCC2)c1 | inconclusive: 35.5 µM [inhibitor, single point] | –
Cc1cc2ccc3ccccc3c2cc1CN(C)C | active: 15.8 µM | –
CN(c1ccc(Cl)cc1)c1cc(=O)n(C)c2ccccc12 | – | inactive: -23.3%
COc1cccc2c(Nc3ccccc3C)cc(C)nc12 | inconclusive: 14.1 µM [inhibitor, single point] | –
N#CCSc1nnc(SCC#N)s1 | – | inactive: -10.6%
O=C(O)c1cccc(-c2csc(C(O)c3ccccc3)n2)c1 (stereo not drawn) | – | inactive: -9.26%
COc1ccc(-c2cccc(NS(=O)(=O)c3cc(C)c(Cl)cc3C)c2)nn1 | inconclusive: 15.8 µM [inhibitor, single point] | –
Cc1cccc(Cn2c(C)c(C)c3cc(C(=O)NCc4ccc(C)o4)ccc32)c1 | inconclusive: 12.6 µM [inhibitor, single point] | –
CCOc1ccc(N(CC(=O)Nc2cccc(F)c2)S(=O)(=O)c2c(C)noc2C)cc1 | – | inactive: -26%
Cc1c(C(=O)NC(=S)Nc2ccc(NC(=O)c3cccs3)cc2)oc2ccccc12 | inconclusive: 3.55 µM [inhibitor, single point] | –

SMILES | Potency | activity, negative = inhibition
CCCn1nc(C(=O)Nc2nc(-c3ccccn3)cs2)c2ccccc2c1=O | inconclusive: 6.31 µM [inhibitor, partial curve, poor fit] | –
Cc1cccc(-c2ccc3ncnc(NCc4cccs4)c3c2)c1 | inconclusive: 31.6 µM [inhibitor, single point] | –
CCCCCOc1ccc(C(=O)N(Cc2ccccc2)C2CCS(=O)(=O)C2)cc1 (stereo not drawn) | inconclusive: 8.91 µM [inhibitor, partial curve, poor fit] | –
Cc1ccccc1NC(=O)NC(N)=O | – | inactive: -24%
CC(=O)C1=C(O)C(=CC=Cc2ccccc2)OC1=O | – | inactive: 4.91%
CCC(C)c1ccc(NC(=O)c2[nH]c(C)c(C(C)=O)c2C)cc1 (stereo not drawn) | – | inactive: -14.1%
COc1ccc(-c2nnc(SC(=O)N3c4ccccc4Sc4ccccc43)o2)cc1 | inconclusive: 35.5 µM [inhibitor, single point] | –
O=C(CSc1nnc(Cc2ccccc2)o1)Nc1ccc(N2CCOCC2)cc1 | – | inactive: -0.359%
Cc1csc(NC(=O)C(Cc2ccccc2)n2cccc2)n1 (stereo not drawn) | inconclusive: 15.8 µM [inhibitor, single point] | –
Cc1cc(Cn2nc(-c3ccccc3)cc2C(=O)NCc2cccc(Br)c2)on1 | inconclusive: 35.5 µM [inhibitor, single point] | –
CCOC(=O)/C=c1\s/c(=C\c2ccc(C#N)cc2)c(=O)n1CC(=O)NCc1ccco1 | – | inactive: -14.8%
CCOC(=O)C1(C(=O)OCC)NC(=O)CC1CC(C)C (stereo not drawn) | – | inactive: 10.7%
Cc1noc(C)c1S(=O)(=O)N(C)C[C@H]1Oc2ccc(NC(=O)CCC(F)(F)F)cc2C(=O)N([C@H](C)CO)C[C@@H]1C | inconclusive: 6.31 µM [inhibitor, full curve, poor fit] | –
COCCNc1nc2cc(-c3cccc(Cl)c3)sc2c(=O)n1C | – | inactive: -20.2%
CC(C)CN(CC(C)C)C(=O)Cc1coc2ccc3ccccc3c12 | inconclusive: 35.5 µM [inhibitor, single point] | –
COc1ccc(NC(=O)Nc2ccc3c(c2)C(=O)N([C@H](C)CO)C[C@H](C)[C@@H](CN(C)Cc2ccc(Cl)c(Cl)c2)OCCCC[C@@H](C)O3)cc1 | – | inactive: -1.83%
CN(C)c1nc2c(c(=O)n(C)c(=O)n2C)n1Cc1ccccc1 | – | inactive: 0%
COc1ccc(N2C(=O)/C(=C/c3cccs3)NC2=S)cc1 | – | inactive: -4.88%
CC(=O)N/C(=C\c1ccccc1)C(=O)OCC(=O)c1ccccc1 | inconclusive: 22.4 µM [inhibitor, single point] | –
CCOC(=O)Cc1[nH]nc2c1C(C1C=CCCC1)C(C#N)=C(N)O2 (stereo not drawn) | inconclusive: 4.47 µM [inhibitor, full curve, poor fit] | –
NNC(=O)C(Cc1c[nH]c2ccccc12)NC(=O)c1ccccc1 (stereo not drawn) | – | inactive: 4.87%
Cc1cc(C)n(CCn2nc(C)cc2C)n1 | inconclusive: 3.55 µM [inhibitor, single point] | –
